The supplement of paper PMC10338343
± gives the standard deviation. This is a selection; strong and weak results do not stand in their true shares.

Each sequence was assayed on MIWI (PIWIL1) piRISC loaded with piRNA #1 (30 nt) (assay: pre-steady-state target cleavage rate (min^-1); MIWI and MILI are mouse PIWI proteins and EfPiwi is from a freshwater sponge; tags in brackets are library labels; higher = faster piRNA-guided slicing of the target). Settings: guide: piRNA #1 5'p-UGAGGUAGUAGGUUGUAUAGUAUCCAGAGG; auxiliary factor: 500 nM mouse GTSF1.
Outline: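 In this Cleave-'n-Seq assay, uncleaved targets were sequenced and normalised to depth and to weakly complementary targets. They came from a transcribed, DNA-blocked target RNA library […] mixed with 1 nM active affinity-purified piRISC carrying one synthetic guide, with or without 500 nM GTSF1 partner protein, in HEPES–potassium acetate buffer at 33 °C for 0–8 or 0–960 min. After three trials were pooled and k3 was capped at 0.0001 min^-1, the pre-steady-state cleavage rate was obtained from a burst-and-steady-state fit.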
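Also: 1 nM active piRISC with 0.1 nM target library at 33 °C single turnover.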

| Sequence | pre-steady-state target cleavage rate |
| --- | --- |
| GGAGAGCAUACUAAACAACCUACUACCUCA | 1.39 ± 0.1 |
| GCUCUGGAUACAAAACAACCUACUACCUCA | 1.08 ± 0.088 |
| CCUCUGGUUACUAUACAACCUACUACCUCA | 2.29 ± 0.13 |
| GGAGUGGAUUGUAUACAACCUACUACCUCA | 0.997 ± 0.069 |
| CCUCUGGAUUCUAUACAACCUACUACCUGA | 0.501 ± 0.076 |
| GGACUCGAUACUAUACAACCAACUACCUCA | 0.101 ± 0.01 |
| GGAGACCAUCACUAUACAACCUACUACCUCA | 1.47 ± 0.17 |
| GGUCUGGAUAGAUUACAACCUACUACCUCA | 0.839 ± 0.1 |
| GGUCUGGAUACUAUACUACCUACUUCCUCA | 0.155 ± 0.029 |
| GGACUGGAUAGUAUACAACCUACAACCUCA | 0.383 ± 0.041 |
| GGAGACCUAACUAUUCAACCUACUACCACA | 0.245 ± 0.032 |
| GGAGACCAGUACUAUACAACCUACUACCUCA | 1.45 ± 0.079 |
| GCUCUGGAUACUAUACAACCUAGUACCACA | 0.255 ± 0.057 |
| GGACUGCAUACUAUACAACCUACUACCACA | 0.519 ± 0.066 |
| GGAGUGGAUACUAUACAACCUACUACCAGA | 0.0592 ± 0.013 |
| GGACUGGAUACUAUAGUACCUACUACCUCA | 1.28 ± 0.11 |
| GGAGACCUAUGAUAACAACCAUGAUGGAGA [g11:g16:cont:t1A] | < 0.0001 |
| GGAGACGAUACUUAUACAACCUACUACCUCA | 1.44 ± 0.085 |
| GGAGACCAAACUAUACAACCAACUACCUCA | 0.0131 ± 0.0057 |
| GGAGACCUAUCUAUACAACCAACUUCCUCA | 0.00405 ± 0.003 |

| Sequence | pre-steady-state target cleavage rate |
| --- | --- |
| GGAGAGGAUACUAUACUAGCUACUACCUCA | 0.309 ± 0.031 |
| GGAGACCUAUCUAAUACAACCUACUACCUCA | 0.0462 ± 0.0099 |
| GGACUGGAUACUAUAACAACCUACUACCUCA | 1.49 ± 0.14 |
| GGAGAGGAUACUAUACAACCUACUACACUCA | 0.864 ± 0.088 |
| GGAGAGGAUACUAUACAACCUUCUACGUCA | 0.102 ± 0.021 |
| GGAGACCUAACUAUACAACCUACCUACCUCA | 0.458 ± 0.04 |
| GGAGACCAUACUUUACUACCUACUACCUCA | 0.207 ± 0.022 |
| GGAGACCAUAGUAUACAACCUACUACCUCA | 0.783 ± 0.048 |
| GGAGUGGAAACUAUACAACCAACUACCUCA | 0.104 ± 0.011 |
| GGAGAGGAUACUAUACAACCUACUGCCUCA | 0.913 ± 0.066 |
| GGAGUGGAUACUUUACAACCUACUACGUCA | 0.244 ± 0.031 |
| GGAGACCUUUGUAUACAACCUACUACCUCA | 0.0731 ± 0.0086 |
| GGAGAGGAUAGUAUACAACCUACUUCCUCA | 0.0124 ± 0.0038 |
| GGAGACCUUUCUAUACAAGCUACUACCUCA | 0.357 ± 0.028 |
| GGAGAGGAUACUAUACAACCUUCUACCACA | 0.219 ± 0.026 |
| GCUCUGGAUACUAUACAACCUACUACGUGA | 0.785 ± 0.084 |
| GGUCUGGAUACUAUACAAGCUACUUCCUCA | 0.581 ± 0.05 |
| GGAGACCUAUGAUAUGUUCCUACUACCUGA | < 0.0001 |
| GGAGUGGAUACUAUACAACCUAGCUACCUCA | 0.217 ± 0.022 |
| GCUCUGGAUACUAUACAACCUACAAGCUCA | 0.629 ± 0.094 |
